Results on 47 molecules are retold here after the supplement of paper PMC10600219.

Where a name gives a salt, the structure may show the parent alone. The full ranking holds about 2,800 compounds; the median of “cell viability relative to vehicle” is about 1.1, and the lowest 2% start at about 0.19. Some of the results follow.

In this experiment the test system is NCI-H2228 parental. Nature of the experiment: cell viability relative to vehicle (fraction of vehicle); NCI-H2228 is an ALK-positive lung cancer line and DTP means drug-tolerant persister; higher = less growth inhibition. As to conditions: 100 nM; treatment time 6 days. The method in brief: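 Parental NCI-H2228 cells and drug-tolerant persister cells (made with 1000 nM of a targeted drug for 13 days) were seeded in 384-well plates. The next day, the 3114-agent TargetMol anti-cancer compound library was added at 100 nM, with DMSO as vehicle. After 6 days, ATP was read with the CellTiter-Glo 3D Cell Viability Assay. Each value is cell viability relative to vehicle-treated cells.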
For `COC(=O)N[C@H](C(=O)N1CC2(CC2)C[C@H]1c1nc(-c2ccc3c(c2)C(F)(F)c2cc(-c4ccc5[nH]c([C@@H]6[C@H]7CC[C@H](C7)N6C(=O)[C@@H](NC(=O)OC)C(C)C)nc5c4)ccc2-3)c[nH]1)C(C)C` [Ledipasvir], the cell viability came out at 1.05. Turning to `O=C1NC(c2cccc([N+](=O)[O-])c2)=CCN1c1ccccc1O`, the cell viability is 1.04. In the case of `CC(=O)OCC(=O)[C@@]1(O)CC[C@H]2[C@@H]3CCC4=CC(=O)C=C[C@]4(C)[C@H]3[C@@H](O)C[C@@]21C` [Prednisolone-21-acetate], the cell viability was determined as 1.

For the molecule `C[C@H]1C[C@H]2[C@@H]3CCC4=CC(=O)C=C[C@]4(C)[C@H]3C(=O)C[C@]2(C)[C@@]1(O)C(=O)CO` [Meprednisone], the cell viability worked out at 1.13.

Turning to `Cc1ccc(S(=O)(=O)OCC(=O)Nc2ccc(C(=O)O)c(O)c2)cc1`, the cell viability was 0.969. To `Cc1nnc(NC(=O)c2nc(S(=O)(=O)Cc3ccc(F)cc3)ncc2Cl)s1` belongs 1.06; to `O=C(O)CCCN1CCC(O[C@@H](c2ccc(Cl)cc2)c2ccccn2)CC1` [Bepotastine Besilate], 1.11; to `O=C(Nc1ncc(SCCN2CCCC2)s1)[C@]1(c2ccc(S(=O)(=O)C3CC3)cc2)C[C@H]1C1CCCCC1`, 1.16. With `COc1ccc(/C=C/c2cc(O)cc(O[C@@H]3O[C@H](CO)[C@@H](O)[C@H](O)[C@H]3O)c2)cc1O` [Rhaponiticin], the cell viability turned out to be 1.11.

With `NNC(=O)c1ccncc1` [Isoniazid], the cell viability turned out to be 1.01. Take `COc1ccc(-c2ccc3cc(C(=O)O)ccc3c2)cc1C12CC3CC(CC(C3)C1)C2` [Adapalene]: the cell viability came to 0.681.

As to `COc1cc2c(NC3CCN(CC4CCCCC4)CC3)nc(N3CCCN(C(C)C)CC3)nc2cc1OCCCN1CCCCC1`, the cell viability stood at 0.981. Then `Nc1cc(C(F)(F)F)c(-c2nc(N3CCOCC3)nc(N3CCOCC3)n2)cn1`, with 0.69; and `CC(=O)O[C@@H]1C[C@H](O)[C@@]23CO[C@@H](O)[C@]1(C)[C@@H]2C[C@@H](O)[C@]1(C)[C@@H]3C(=O)[C@H](OC(C)=O)[C@@]2(C)[C@H](c3ccoc3)C[C@H]3O[C@]321` [Toosendanin], with 0.147.

Regarding `Cc1cc(=O)c(C(=O)N[C@@H](C(=O)N[C@@H]2C(=O)N3C(C(=O)O)=C(CSc4nnnn4C)CS[C@H]23)c2ccc(O)cc2)c[nH]1` [Cefpiramide acid], the cell viability worked out at 1.08. To `O=c1[nH]c(=O)n([C@H]2C[C@H](O)[C@@H](CO)O2)cc1I` [Dendrid] belongs 1.2; to `COc1cc2c(cc1OC)CN(C(=O)[C@@H](NCc1ccncc1)C(C)(C)C)CC2`, 1.01; to `CN1CCN(c2ccc3nc(-c4c(N)c5c(F)cccc5[nH]c4=O)[nH]c3c2)CC1` [Dovitinib], 0.968. As for `N[C@@H](COP(=O)(O)O)C(=O)O` [Phosphoserine], the cell viability was found to be 0.97.

Turning to `CCCCC/C=C\C/C=C\CCCCCCCC(=O)O` [Linoleic acid], the cell viability is 0.996. For the molecule `Cc1cccc(N(C)C(=S)Oc2ccc3ccccc3c2)c1` [Tolnaftate], the cell viability came out at 1.1. Regarding `CC(C)c1nc(CN(C)C(=O)N[C@@H](CCN2CCOCC2)C(=O)N[C@H](CC[C@H](Cc2ccccc2)NC(=O)OCc2cncs2)Cc2ccccc2)cs1` [Cobicistat], the cell viability turned out to be 1.14.

Turning to `Cc1cccc(-c2nn3c(c2-c2ccnc4ccc(C(N)=O)cc24)CCC3)n1` [Galunisertib], the cell viability worked out at 1.01. Then `O=C(Nc1cccnc1)N1CCC(Cc2cccc(Oc3ccc(C(F)(F)F)cn3)c2)CC1`, with 1.05; and `O=C(Nc1ccc([N+](=O)[O-])cc1Cl)c1cc(Cl)ccc1O` [Niclosamide], with 0.961. Take `CCOc1ccc(Cc2nccc3cc(OCC)c(OCC)cc23)cc1OCC` [Ethaverine hydrochloride]: the cell viability was 1.1. Then `Cc1cc(C)nc(NS(=O)(=O)c2ccc(NC(=S)NC(=O)COc3ccc(Br)cc3Cl)cc2)n1`, with 0.924. Then `NC[C@H]1OB(O)c2c(OCCCO)cccc21` [Epetraborole hydrochloride], with 1.14. Then `CN1C(C(=O)Nc2ccccn2)=C(O)c2sc(Cl)cc2S1(=O)=O` [Lornoxicam], with 1.3. In the case of `OC[C@H]1O[C@@H](Oc2cc(O)cc(/C=C/c3ccc(O[C@@H]4O[C@H](CO)[C@@H](O)[C@H](O)[C@H]4O)cc3O)c2)[C@H](O)[C@@H](O)[C@@H]1O` [Mulberroside A], the cell viability is 1.07. Then `C/C(=N\NC(=O)c1cccc(S(=O)(=O)N2CCN(C)CC2)c1)c1cc(Cl)ccc1O` [Seclidemstat], with 0.936; and `COc1ccc(-c2cc(=O)c3c(OC)c(OC)c(OC)c(OC)c3o2)cc1` [Tangeretin], with 1.15; and `O=C(O)c1ccc(C=C2SC(=S)N(c3cccc(C(F)(F)F)c3)C2=O)cc1`, with 1.25. As to `O=C1N=c2ccccc2=C1c1c(O)[nH]c2ccccc12` [Isoindigotin], the cell viability came to 1.07.

As to `N#Cc1c(Oc2ccc(F)c(NC(=O)Cc3cccc(C(F)(F)F)c3)c2)ccc2nc(NC(=O)C3CC3)sc12`, the cell viability was 1.07.

For the molecule `CC(C)=CCc1cc2c(cc1O)O[C@H](c1ccc(O)cc1)CC2=O` [Bavachin], the cell viability is 1.03. As to `CCc1nc2c(C)cc(N3CCN(CC(=O)N4CC(O)C4)CC3)cn2c1N(C)c1nc(-c2ccc(F)cc2)c(C#N)s1`, the cell viability came out at 1.14. Then `CC1(C)C=Cc2c(ccc3c2OC[C@@H](c2ccc(O)cc2O)C3)O1` [Glabridin], with 1.05; and `O=c1cc[nH]c(=O)[nH]1` [Uracil], with 1.13.

Consider `O=C(NCc1ccc(S(=O)(=O)c2cc(F)cc(F)c2)cc1)c1ccc2nccn2c1`, for which the cell viability worked out at 0.117. Then `Cc1ccc(C(=O)Nc2cccc(C(F)(F)F)c2)cc1Nc1nc(-c2cccnc2)nc2c1cnn2C`, with 1.06; and `COc1ccc(-c2cc(=O)c3c(OC)c(OC)c(OC)c(OC)c3o2)cc1OC` [Nobiletin], with 1.25; and `O=C(O)CCc1nc2ccccc2[nH]1` [Procodazole], with 1.04.

Consider `NCc1c[nH]c(=S)n1[C@H]1CCc2c(F)cc(F)cc2C1` [Nepicastat HCl], for which the cell viability worked out at 1.09. Then `CCCc1nc(C(C)(C)O)c(C(=O)OCc2oc(=O)oc2C)n1Cc1ccc(-c2ccccc2-c2nnn[nH]2)cc1` [Olmesartan Medoxomil], with 1.41; and `Cn1c(=O)c2c(ncn2CC(O)CO)n(C)c1=O` (configuration not stated) [Diprophylline], with 1.1; and `CC(C)C[C@H](N)C(=O)O` [L-Leucine], with 0.952.
